# This list was built around the results that the source calls inconclusive (neither active nor inactive); the mix of calls is not that of the screen. Potencies of inconclusive entries are left out as doubtful fits. Activity calls are given as the source filed them. The call rests on the fitted dose curve; in most records, active means well fitted inhibition curve with a large enough effect; inconclusive means small, poorly fitted or top-dose-only effect, or another doubt; inactive means no such curve, though single readings can be large or run the other way.
# Target: DNA polymerase eta (Homo sapiens) (UniProt Q9Y253)
# Chain of UniProt Q9Y253 (Q9Y253 whole entry, looked up): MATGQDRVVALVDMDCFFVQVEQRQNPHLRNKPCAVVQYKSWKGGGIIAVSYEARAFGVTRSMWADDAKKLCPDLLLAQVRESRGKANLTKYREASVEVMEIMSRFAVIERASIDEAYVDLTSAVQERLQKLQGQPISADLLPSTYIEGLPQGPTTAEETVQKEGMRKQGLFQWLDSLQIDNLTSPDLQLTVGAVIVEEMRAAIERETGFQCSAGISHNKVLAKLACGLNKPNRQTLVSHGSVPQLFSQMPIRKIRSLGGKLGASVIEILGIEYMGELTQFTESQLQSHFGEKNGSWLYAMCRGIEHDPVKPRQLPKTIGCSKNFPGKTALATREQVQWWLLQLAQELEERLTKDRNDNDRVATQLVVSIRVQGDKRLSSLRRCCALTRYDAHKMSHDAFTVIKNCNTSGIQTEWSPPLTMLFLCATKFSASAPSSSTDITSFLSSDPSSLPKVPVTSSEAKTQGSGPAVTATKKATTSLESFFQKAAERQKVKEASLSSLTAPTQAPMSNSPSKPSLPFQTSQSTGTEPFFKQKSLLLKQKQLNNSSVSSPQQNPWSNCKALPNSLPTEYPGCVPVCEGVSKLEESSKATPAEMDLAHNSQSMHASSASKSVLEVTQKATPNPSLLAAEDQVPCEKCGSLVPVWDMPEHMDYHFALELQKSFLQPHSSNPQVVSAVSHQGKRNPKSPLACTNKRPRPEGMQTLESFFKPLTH
# Experiment: qHTS for Inhibitors of Polymerase Eta: Confirmatory Assay for Cherry-picked Compounds (AID 720502)
# Details: Pol eta primer extension, TAMRA/BHQ fluorescence, 10 min
# Summary of the method: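 Readout: TAMRA dequenching, ex 525/em 598 nm, read at 0 and 10 min. Enzyme: 10 nM human Pol eta, preincubated with compound 15 min RT. Substrate: 50 nM final annealed primer/reporter/template duplex.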
# Potency means the concentration at half of the fitted maximal effect; tags describe the fitted curve by direction and shape.
row,Structure (SMILES),Potency
1,O=C(COc1cc2oc(=O)cc(-c3ccccc3)c2cc1Cl)NC(Cc1c[nH]c2ccc(O)cc12)C(=O)O (configuration not stated),"inconclusive [inhibitor, single point]"
2,O=C(O)CCC(=O)Nc1ccc2c(c1)Cc1cc(NC(=O)CCC(=O)O)ccc1-2,"inconclusive [inhibitor, single point]"
3,Cc1ccc(N=Nc2c(N)nn3c(N)c(C#N)c(C)nc23)cc1,"inconclusive [inhibitor, partial curve]"
4,c1ccc2c(c1)OCC(c1nnc3sc(-c4cnccn4)nn13)O2 (configuration not stated),"inconclusive [inhibitor, single point]"
5,O=C(O)C(c1ccccc1)N1C(=O)/C(=C\c2ccc(-c3cccc(Cl)c3)o2)SC1=S (configuration not stated),active: 75.7 µM
6,N=C1/C(=C/c2ccc(OCc3ccccc3)cc2)C(=O)N=C2SC(CC(=O)N3CCOCC3)=NN12,"inconclusive [inhibitor, single point]"
7,O=C(O)c1ccc(-n2cccc2/C=C2/SC(=O)N(CC(=O)N3CCCC3)C2=O)cc1,active: 6.75 µM
8,O=c1c(Br)ccc(Br)cc1Br,"inconclusive [inhibitor, single point]"
9,O=C(O)C1Cc2ccccc2CN1C(=O)COc1ccc(Cl)cc1Cl (configuration not stated),"inconclusive [inhibitor, single point]"
10,COc1ccc(-c2nn(-c3ccccc3)cc2/C=C2/SC(=S)N(CCC(=O)O)C2=O)c(C)c1,"inconclusive [inhibitor, single point]"
11,O=C(COC(=O)c1ccc([N+](=O)[O-])o1)Nc1ncc(Cl)cc1Cl,"inconclusive [inhibitor, single point]"
12,CS(=O)(=O)C1=NSC2=NC(=O)/C(=C\c3cccn3-c3ccc(Cl)cc3)C(=N)N21,"inconclusive [inhibitor, single point]"

# — PubChem BioAssay (NCATS)
